For assay [1], the target named is T1, murine CD22-ECD-His (mouse) (UniProt P35329).
T1 sequence (looked up): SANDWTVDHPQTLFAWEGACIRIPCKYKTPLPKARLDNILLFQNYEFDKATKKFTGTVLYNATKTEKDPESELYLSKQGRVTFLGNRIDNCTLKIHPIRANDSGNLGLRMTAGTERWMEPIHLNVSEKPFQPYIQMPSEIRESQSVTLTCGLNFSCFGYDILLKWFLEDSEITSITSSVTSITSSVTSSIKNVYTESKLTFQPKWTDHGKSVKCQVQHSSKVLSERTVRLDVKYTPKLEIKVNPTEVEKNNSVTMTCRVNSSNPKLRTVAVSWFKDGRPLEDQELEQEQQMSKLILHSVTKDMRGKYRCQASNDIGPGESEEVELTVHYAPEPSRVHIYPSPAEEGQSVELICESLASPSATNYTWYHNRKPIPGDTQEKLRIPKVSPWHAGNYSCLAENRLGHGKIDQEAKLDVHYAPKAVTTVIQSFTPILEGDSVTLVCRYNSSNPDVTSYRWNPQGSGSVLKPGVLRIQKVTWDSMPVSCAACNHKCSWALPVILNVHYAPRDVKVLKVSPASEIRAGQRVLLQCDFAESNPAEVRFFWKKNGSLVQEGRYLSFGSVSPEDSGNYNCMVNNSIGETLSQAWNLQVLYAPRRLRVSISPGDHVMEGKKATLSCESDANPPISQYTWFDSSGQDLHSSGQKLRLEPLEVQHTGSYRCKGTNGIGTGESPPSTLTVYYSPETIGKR
Description: ELISA, coated mouse CD22, antibody 100 nM.

Assay [2] has as its target T1, murine CD22-ECD-His (mouse). The assay is described as follows: ELISA, coated mouse CD22, antibody 0.10 nM. In general terms: In an ELISA, binding on a coated surface is turned into a signal by an enzyme label.
The target is the same in assay [3]. The assay is described as follows: ELISA, coated mouse CD22, antibody 0.00001 nM.
Assay [4] has the same target. The assay is described as follows: ELISA, coated mouse CD22, antibody 0.01 nM.
Assay [5] has the same target. Description: ELISA, coated mouse CD22, antibody 0.0001 nM.
The target is the same in assay [6]. Description: ELISA, coated mouse CD22, antibody 10 nM.
Assay [7] shares this target. The assay is described as follows: ELISA, coated mouse CD22, antibody 0.001 nM.

B1: S002-NB151-13 VHH-Fc (Fc fusion)
chain: QVQLVESGGGLVQAGDSLRLSCAASTRIFRSYVMGWFRQAPGKEREAVASIRWSNDTGTYADSVKGRFTISRDNAKNTVYLQMNSLKPEDTAVYSCAADSPPWGRTWYTGYDYWGQGTQVTVSS[human IgG1 Fc with changes cut from this listing]
In the case of B1, the OD450 in assay [1] is 0.38; in assay [2], 0.06; in assay [3] it was 0.06; in assay [4] it was 0.06; in assay [5], 0.06; in assay [6] it was 0.11. The OD450 in assay [7] was 0.06.

The values are drawn from patent US20230416360A1.
